This assay concerns MIWI (PIWIL1) piRISC loaded with L1MC piRNA (30 nt). In words: pre-steady-state target cleavage rate (min^-1); MIWI and MILI are mouse PIWI proteins and EfPiwi is from a freshwater sponge; tags in brackets are library labels; higher = faster piRNA-guided slicing of the target. As to conditions: guide: L1MC piRNA 5'p-UAACUAAAUACUAUGCAAGCUGUAGGUCCU
The gist of the method:
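In Cleave-'n-Seq, a transcribed, DNA-blocked target RNA library (0.1 nM) was combined with 1 nM active affinity-purified piRISC bearing one synthetic guide, with or without 500 nM GTSF1 partner protein. Reactions ran in HEPES–potassium acetate buffer at 33 °C for 0–8 or 0–960 min. Uncleaved targets were sequenced and normalised to depth and to weakly complementary targets, three trials were pooled, and k3 was capped at 0.0001 min^-1. The pre-steady-state cleavage rate was obtained by fitting a burst-and-steady-state model.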

Where [1] appears, read: auxiliary factor: 500 nM mouse GTSF1.
[2] abbreviates: auxiliary factor: none (no GTSF1).

± gives the standard deviation. Only a part is listed here, and it is no random draw.

This note sets out measurements from the supplement of paper PMC10338343.

Consider UCCUGGAUGUGCUUGCAUAGAAUUUUGUUA, for which the “pre-steady-state target cleavage rate” value under setting [1] came out at 0.0118 ± 0.0055 and the “pre-steady-state target cleavage rate” value under setting [2] worked out at 0.00328 ± 0.0031.
For UCCUGGAUGAGCUUGCAUACUAUUUAGAUA the same measures were 0.0538 ± 0.017 and 0.00863 ± 0.0041.
In the same order, the values of UCCUGGAUCAGCUUGCAUAGUAUUUAGAAA are 0.424 ± 0.047 and 0.00625 ± 0.0026.
For the sequence AGGACCUACAGCUUGCAUAGUAUAAAGUUA, the “pre-steady-state target cleavage rate” value by setting is: under setting [1], 0.563 ± 0.046; under setting [2], 0.0366 ± 0.0098.
Turning to UCCUGGAACAGCUUGGUUAGUAUUUAGUUA, the “pre-steady-state target cleavage rate” value was 0.95 ± 0.041 under setting [1] and 0.0108 ± 0.0031 under setting [2].
On to UCCACCUUCAGCUUGGAUAGUAUUUAGUUA, for which the “pre-steady-state target cleavage rate” value by setting is: under setting [1], 1.15 ± 0.033; under setting [2], 0.0456 ± 0.0083.
Regarding UCCUGGAUCUGCUUGCAUACUAUUUAGUUA, the “pre-steady-state target cleavage rate” value is, setting by setting: under setting [1], 0.137 ± 0.013; under setting [2], 0.0196 ± 0.0058.
For UGGACCUACAGGUUGCAUAGUAUUUAGUAA the same measures were 0.949 ± 0.078 and 0.0304 ± 0.0059.
As for AGGUCCUACAGCUUGCAUAGUAUUUAGAAA, the “pre-steady-state target cleavage rate” value is, setting by setting: under setting [1], 0.285 ± 0.045; under setting [2], 0.0132 ± 0.0048.
For UCCACCUACAGCUUGGAUAGUAUUUAGAUA the same measures were 0.319 ± 0.042 and 0.0137 ± 0.0027.
In the same order, the values of UGGACCUACACCUAGCAUAGUAUUUAGUUA are 0.861 ± 0.048 and 0.0198 ± 0.0034.
For UGGACCUACAGCUUGCAUAGUAUUUACAAA the same measures were 0.277 ± 0.035 and 0.00701 ± 0.0024.
With UAGACCUACAGCUUGCAUAGUAUUUAGUUA, the “pre-steady-state target cleavage rate” value by setting is: under setting [1], 1.31 ± 0.043; under setting [2], 0.0672 ± 0.011.
As to UCCUGGAACAGCUUGCAUUGUAUAUAGUUA, the “pre-steady-state target cleavage rate” value under setting [1] amounted to 0.279 ± 0.024 and the “pre-steady-state target cleavage rate” value under setting [2] was 0.0152 ± 0.0037.
For the sequence UCCUGGUACAGCUUGCAUACUAUUAAGUUA, the “pre-steady-state target cleavage rate” value under setting [1] came to 0.13 ± 0.031 and the “pre-steady-state target cleavage rate” value under setting [2] was determined as 0.00677 ± 0.0024.
Turning to AGGACCUACAGCUUACAUAGUAUUUAGUUA, the “pre-steady-state target cleavage rate” value runs as follows: under setting [1], 1.28 ± 0.064; under setting [2], 0.0655 ± 0.011.
For UCCAGGUACAGCUUGCAUAGUAUUUAGUUA, the “pre-steady-state target cleavage rate” value under setting [1] turned out to be 1.09 ± 0.04 and the “pre-steady-state target cleavage rate” value under setting [2] turned out to be 0.0764 ± 0.011.
In the same order, the values of UCCUCCUACACCUUGCAUAGUAUUUACAAA are 0.34 ± 0.05 and 0.00296 ± 0.0025.
For the sequence UCCUCCUACAGCUUGCAUAGUAUUUUGAUA, the “pre-steady-state target cleavage rate” value is 0.295 ± 0.033 under setting [1] and 0.00857 ± 0.0036 under setting [2].
For UCCACGAACAGCUUGCAUAGUAUUUUCAAA the same measures were 0.284 ± 0.044 and 0.00307 ± 0.0029.
In the case of UGGACCUACAGCUUGCUAUGUAUUUAGUAA, the “pre-steady-state target cleavage rate” value is 0.0304 ± 0.0054 under setting [1] and 0.00289 ± 0.0013 under setting [2].
As to UCCUGCUACAGCUUGCAUAGAAUUUAGAAA, the “pre-steady-state target cleavage rate” value is 0.306 ± 0.053 under setting [1] and 0.00425 ± 0.0023 under setting [2].
For UCCUCGUACAGCAUGCAUAGUAUUUAGUUA the same measures were 1.28 ± 0.064 and 0.0195 ± 0.0041.
In the same order, the values of UCCUGGAUCAGCUUGCAUUGUAUUUAGUAA are 0.379 ± 0.026 and 0.0124 ± 0.0045.
Regarding UCCACCUAGAGCUUGCUUAGUAUUUAGUUA, the “pre-steady-state target cleavage rate” value came out at 0.549 ± 0.044 under setting [1] and 0.0205 ± 0.0044 under setting [2].
As for UCCUGGAUGAGCUUGCAUACUUUUUAGUUA, the “pre-steady-state target cleavage rate” value was 0.00558 ± 0.0034 under setting [1] and 0.00376 ± 0.0015 under setting [2].
As to UCCUGGUUCAGCUUGCUUAGUAUUUAGUUA, the “pre-steady-state target cleavage rate” value was found to be 1.05 ± 0.065 under setting [1] and 0.0378 ± 0.0086 under setting [2].
For UCCUGGAUCACCUUGCAUAGUAUUUAGAUA the same measures were 0.124 ± 0.025 and 0.00504 ± 0.0021.
On to AGGACCUUCAGCUUGCAUUGUAUUUAGUUA, for which the “pre-steady-state target cleavage rate” value by setting is: under setting [1], 0.966 ± 0.031; under setting [2], 0.0424 ± 0.01.
In the same order, the values of UGGACCUACAGCUUGCAAUGUAUUUAGUAA are 0.268 ± 0.032 and 0.00319 ± 0.0022.
Consider UCCUGGAAGUCCUUGCAUAGUAUUUAGUAA, for which the “pre-steady-state target cleavage rate” value under setting [1] stood at 0.0524 ± 0.01 and the “pre-steady-state target cleavage rate” value under setting [2] stood at 0.00404 ± 0.0018.
In the same order, the values of UCGACCUACAGCUUGCAUAGAAUUAAGUUA are 0.345 ± 0.038 and 0.00916 ± 0.0029.
For UCCUGGAACAGCUUGCAUACUAUUUAGAAA the same measures were 0.096 ± 0.02 and 0.00562 ± 0.0024.
For UGGACCUUCAGCUUGCAUAGUAUUUAGUUA, the “pre-steady-state target cleavage rate” value was 1.45 ± 0.067 under setting [1] and 0.069 ± 0.011 under setting [2].
Consider UCCACCUACAGCUUGCAUAGUAUUUACGUUA, for which the “pre-steady-state target cleavage rate” value is 0.64 ± 0.047 under setting [1] and 0.0372 ± 0.0077 under setting [2].
Regarding UGGAGCUACAGCUUGCAUAGUAUUUAGUAA, the “pre-steady-state target cleavage rate” value reads like this: under setting [1], 0.953 ± 0.06; under setting [2], 0.0465 ± 0.0085.
For UCCUGGAUGAGCUUGCAUUGUAUUUAGAAA, the “pre-steady-state target cleavage rate” value was 0.0343 ± 0.011 under setting [1] and 0.00382 ± 0.0027 under setting [2].
In the same order, the values of UCCUGCUACUCCUUGCAUAGUAUUUAGUAA are 0.305 ± 0.026 and 0.0074 ± 0.002.
In the same order, the values of UCCUGGAACAGCUUGCAUAGUGAUUUAGUUA are 0.0361 ± 0.0085 and 0.0077 ± 0.003.
For UCCUGGAUGAGCUUGCAUAGUAUUUACUAA, the “pre-steady-state target cleavage rate” value reads like this: under setting [1], 0.0842 ± 0.024; under setting [2], 0.00516 ± 0.0024.
For AGGACCUACAGGUUGCAUAGUAUUUAGUAA the same measures were 1.01 ± 0.098 and 0.0537 ± 0.013.
In the case of UCCUGGAUCAGCUUGGAUAGUAUUUAGAUA, the “pre-steady-state target cleavage rate” value by setting is: under setting [1], 0.149 ± 0.025; under setting [2], 0.015 ± 0.0044.
UCCUGGUACACCUUGCAUAGUAAUUAGUUA: the “pre-steady-state target cleavage rate” value was found to be 0.546 ± 0.1 under setting [1] and 0.00728 ± 0.0025 under setting [2].
On to UGGACCUACAGCUUGCUUAGUAUUUAGUUA, for which the “pre-steady-state target cleavage rate” value runs as follows: under setting [1], 1.56 ± 0.094; under setting [2], 0.0426 ± 0.011.
For the sequence UCCUGGAUCAGGAUGCAUAGUAUUUAGUUA, the “pre-steady-state target cleavage rate” value under setting [1] turned out to be 0.0609 ± 0.0094 and the “pre-steady-state target cleavage rate” value under setting [2] worked out at 0.00329 ± 0.0021.
